Test results published in the supplement of paper PMC9446081.
Hit rate of the full screen: of about 39,000 compounds, about 220 (0.56%) showed activity. The list shows a part of the results.

test system: Escherichia coli K-12 BW25113; assay: relative growth (OD600 normalised to plate interquartile mean) (fraction); higher = less growth inhibition, active = 0.2 or less; conditions: 50 µM; LB; incubation time: overnight (16-24 h)
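Note: static incubation at 37 °C against the wild-type strain, values averaged over two biological replicates.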

Row | SMILES | relative growth
1 | CO[C@H]1/C=C\O[C@@]2(C)Oc3c(C)c(O)c4c(c3C2=O)[C@]2(C=C(NC(=O)/C(C)=C\C=C/[C@@H](C)[C@@H](O)[C@@H](C)[C@@H](O)[C@@H](C)[C@@H](OC(C)=O)[C@@H]1C)C4=O)OCC(=O)O2 | inactive: 0.905
2 | c1cnc(N2CC[N+]3(CCCC3)CC2)nc1 | inactive: 0.991
3 | Cc1cccc2c3c(ccc12)C1=C(C(=O)C3=O)C(C)CO1 (centres undefined) | inactive: 1.13
4 | CC(C)CC(=O)N[C@H](C(=O)N[C@H](C(=O)N[C@@H](CC(C)C)[C@@H](O)CC(=O)N[C@@H](C)C(=O)N[C@@H](CC(C)C)[C@@H](O)CC(=O)O)C(C)C)C(C)C | inactive: 1.02
5 | CCS(=O)(=O)NCc1nccc(N(C)C)n1 | inactive: 1.01
6 | CCCCCCCCCCCCCCCCCCCCCCCCC(=O)O | inactive: 0.989
7 | COc1ccc(CN(C)C[C@H]2Oc3ccc(NC(=O)Nc4cccc5ccccc45)cc3CC(=O)N([C@H](C)CO)C[C@H]2C)cc1 | inactive: 1.01
8 | CCN(CC)c1ccc(N2CC=C[C@@]34O[C@@H]5/C=C\CC[C@H](C)OC(=O)[C@@H]5[C@H]3C(=O)N(CCO)[C@@H]4C2=O)cc1 | inactive: 0.986
9 | C[C@H]1CN([C@@H](C)CO)C(=O)c2cc(C#CCc3ccccc3)cnc2O[C@H]1CN(C)C(=O)C1CCOCC1 | inactive: 1.01
10 | COc1ccc(S(=O)(=O)Nc2ccc3c(c2)CC(=O)N([C@H](C)CO)C[C@@H](C)[C@H](CN(C)S(=O)(=O)c2cccs2)O3)cc1 | inactive: 1.01
11 | O=C(CN1CCOCC1)NCC[C@@H]1CC[C@H](NC(=O)Cc2ccccn2)[C@@H](CO)O1 | inactive: 1
12 | C[C@@H]1O[C@@H](O[C@H]2[C@H](O[C@H]3[C@H](O)[C@@H](C(=O)O)O[C@@H](O[C@H]4CC[C@]5(C)[C@H]6CC[C@]78OC[C@@]9(CCC(C)(C)C[C@@H]97)[C@H](O)C[C@@]8(C)[C@]6(C)CC[C@H]5C4(C)C)[C@@H]3OC3O[C@H](CO)[C@@H](O)[C@H](O)[C@H]3O)O[C@H](CO)[C@H](O)[C@@H]2O)[C@H](O)[C@H](O)[C@H]1O (some centres undefined) | inactive: 1
13 | Cc1ccccc1S(=O)(=O)N1[C@@H]2c3cccc(=O)n3C[C@H]1[C@H](CO)[C@H]2C(=O)N1CCOCC1 | inactive: 0.981
14 | C[C@H]1CCCCO[C@H](CN(C)CC2CC2)[C@@H](C)CN([C@@H](C)CO)C(=O)c2cc(NC(=O)Nc3ccccc3)ccc2O1 | inactive: 0.987
15 | Cc1noc(C)c1S(=O)(=O)Nc1ccc2c(c1)C(=O)N([C@@H](C)CO)C[C@H](C)[C@@H](CN(C)C(=O)Nc1ccccc1)O2 | inactive: 0.998
16 | CC(C)NC(=O)Nc1cccc2c1O[C@@H](CN(C)Cc1ccc(C(=O)O)cc1)[C@@H](C)CN([C@@H](C)CO)C2=O | inactive: 0.97
17 | C[C@@H]1CN([C@H](C)CO)C(=O)Cc2cc(NC(=O)NC3CCCCC3)ccc2O[C@H]1CN(C)Cc1ccc(C(F)(F)F)cc1 | inactive: 0.997
18 | C[C@@H]1CN([C@@H](C)CO)C(=O)c2cccc(NC(=O)C3CC3)c2O[C@H]1CN(C)S(=O)(=O)c1cccs1 | inactive: 0.966
19 | CC(C)(C)OC(=O)CC[C@]12N=C(c3ccc(OCCCO)cc3)O[C@H]1c1ccccc1N(Cc1ccccc1)C2=O | inactive: 0.983
20 | COc1nc(N)nc2c1ncn2[C@@H]1O[C@H](CO[P@@](=O)(N[C@@H](C)C(=O)OCC(C)(C)C)Oc2cccc3ccccc23)[C@@H](O)[C@@]1(C)O | inactive: 1.01

Row | SMILES | relative growth
21 | CC(C)C#Cc1ccc2c(c1)O[C@H](CN(C)S(=O)(=O)c1cn(C)cn1)[C@@H](C)CN([C@H](C)CO)S2(=O)=O | inactive: 0.995
22 | C[C@@H]1CCCCO[C@H](CN(C)S(=O)(=O)c2ccc(Cl)cc2)[C@@H](C)CN([C@@H](C)CO)C(=O)c2cc(NC(=O)c3ccncc3)ccc2O1 | inactive: 0.987
23 | C[C@H](CO)N1C[C@H](C)[C@H](CN(C)Cc2ccncc2)OCCCC[C@H](C)Oc2ccc(NC(=O)Nc3cccc4ccccc34)cc2C1=O | inactive: 1.03
24 | O=C(C[C@@H]1CC[C@H](NS(=O)(=O)c2ccc(F)cc2)[C@H](CO)O1)NCc1ccc(Cl)c(Cl)c1 | inactive: 1.02
25 | CC(C)(C)C(=O)N1CCNCC1 | inactive: 0.996
26 | Cl.NC(Cc1ccc(Cl)cc1)C(=O)O (racemic) | inactive: 0.986
27 | COc1ccc(S(=O)(=O)N(C)C[C@H]2Oc3ccc(NC(=O)Cc4ccccc4)cc3C(=O)N([C@H](C)CO)C[C@@H]2C)cc1 | inactive: 1.01
28 | C[C@@H]1CCCCO[C@@H](CN(C)Cc2ccc(Cl)c(Cl)c2)[C@@H](C)CN([C@@H](C)CO)C(=O)c2cc(NS(=O)(=O)c3cn(C)cn3)ccc2O1 | inactive: 0.996
29 | C[C@@H]1CN([C@@H](C)CO)C(=O)c2cccc(NC(=O)c3ccc(-c4nccs4)cc3)c2O[C@@H]1CN(C)S(C)(=O)=O | inactive: 1.02
30 | CCN(CC)c1ccc(N2CC=C[C@@]34O[C@@H]5C=CCOC(=O)[C@@H]5[C@H]3C(=O)N([C@@H](CO)C(C)C)[C@@H]4C2=O)cc1 | inactive: 0.973
31 | C[C@H](CO)N1C[C@H](C)[C@H](CN(C)C(=O)Nc2ccc(F)cc2)Oc2ncc(Br)cc2C1=O | inactive: 0.974
32 | C[C@H](CO)N1C[C@H](C)[C@@H](CN(C)C(=O)NC2CCCCC2)Oc2ccc(NC(=O)CCCN(C)C)cc2C1=O | inactive: 1.01
33 | Cc1noc(C)c1NC(=O)N(C)C[C@@H]1Oc2c(NS(=O)(=O)c3ccccc3)cccc2C(=O)N([C@H](C)CO)C[C@@H]1C | inactive: 0.987
34 | Cc1noc(C)c1S(=O)(=O)N(C)C[C@H]1Oc2ccc(NC(=O)CCCN(C)C)cc2C(=O)N([C@H](C)CO)C[C@@H]1C | inactive: 0.989
35 | O=C(C[C@@H]1C[C@H]2c3cc(NC(=O)C4CCOCC4)ccc3O[C@H]2[C@@H](CO)O1)NCc1ccc2c(c1)OCO2 | inactive: 1.02
36 | COc1cc(CN2CCC(C(=O)N[C@@H](c3ccc(-c4ccccc4)cc3)c3cnccn3)CC2)cc(OC)c1 | inactive: 1.02
37 | C[C@H](CO)N1C[C@H](C)[C@@H](CN(C)Cc2ccc3c(c2)OCO3)OCCCC[C@H](C)Oc2ccc(NC(=O)Nc3ccc(F)cc3)cc2C1=O | inactive: 1.03
38 | Cc1oc(C(C)(C)C)cc1C(=O)Nc1ccc(C(C)C)cc1 | inactive: 1
39 | C[C@H]1CN([C@@H](C)CO)S(=O)(=O)c2ccc(C#CCN(C)C)cc2O[C@@H]1CN(C)Cc1ccncc1 | inactive: 1.02
40 | C[C@@H]1CN([C@H](C)CO)C(=O)c2cc(NC(=O)Cc3ccccc3)ccc2O[C@H]1CN(C)S(=O)(=O)c1cccs1 | inactive: 0.989

Row | SMILES | relative growth
41 | C[C@@H]1CCCCO[C@@H](CN(C)S(=O)(=O)c2ccccc2)[C@@H](C)CN([C@H](C)CO)C(=O)c2cc(NC(=O)CCCCCC(=O)Nc3ccccc3N)ccc2O1 | inactive: 0.992
42 | Cc1ccc(S(=O)(=O)C[C@H](C)N2CCOCC2)c(S(=O)(=O)C[C@@H](C)N2CCOCC2)c1 | inactive: 1.01
43 | NC1CCN(C(=O)c2c[nH]c3ccccc23)CC1 | inactive: 1.01
44 | C[C@@H]1CCCCO[C@@H](CN(C)C(=O)Cc2ccccc2)[C@@H](C)CN([C@@H](C)CO)C(=O)c2cc(NS(=O)(=O)c3ccc(F)cc3)ccc2O1 | inactive: 0.943
45 | Cc1noc(C)c1NC(=O)Nc1ccc2c(c1)C(=O)N([C@H](C)CO)C[C@@H](C)[C@@H](CN(C)C(=O)NC(C)C)O2 | inactive: 0.962
46 | O=C(C[C@H]1C=C[C@H](NC(=O)c2ccncc2)[C@@H](CO)O1)NCc1ccncn1 | inactive: 0.973
47 | CNC(=O)CN1CCOC[C@]2(CCCN(C(C)=O)C2)C1 | inactive: 1
48 | CN(C)/C=N/C(=S)N1CCOCC1 | inactive: 1.01
49 | Cc1noc(C)c1NC(=O)Nc1ccc2c(c1)C(=O)N([C@@H](C)CO)C[C@H](C)[C@H](CN(C)Cc1ccncc1)OCCCC[C@@H](C)O2 | inactive: 0.987
50 | COc1cccc(NC(=O)N(C)C[C@@H]2Oc3ncc(Br)cc3C(=O)N([C@@H](C)CO)C[C@H]2C)c1 | inactive: 0.994
51 | CC(C)C#Cc1ccc2c(c1)O[C@@H](CN(C)S(=O)(=O)c1cn(C)cn1)[C@@H](C)CN([C@H](C)CO)S2(=O)=O | inactive: 0.971
52 | Cc1ccc(S(=O)(=O)N[C@@H]2CC[C@@H](CC(=O)NCc3ccc(Cl)c(Cl)c3)O[C@H]2CO)cc1 | inactive: 1.01
53 | COc1ccc(NC(=O)Nc2ccc3c(c2)C(=O)N([C@H](C)CO)C[C@@H](C)[C@@H](CN(C)C(=O)CCC(F)(F)F)OCCCC[C@H](C)O3)cc1 | inactive: 0.996
54 | CN(C)CC#Cc1ccc([C@H]2[C@H](CO)N3CCCCN(C(=O)CN(C)C)C[C@@H]23)cc1 | inactive: 1.05
55 | CC(C)NC(=O)N(C)C[C@@H]1Oc2ccc(NC(=O)C3CCCCC3)cc2C(=O)N([C@@H](C)CO)C[C@@H]1C | inactive: 0.916
56 | C[C@@H]1CCCCO[C@@H](CN(C)Cc2ccncc2)[C@@H](C)CN([C@H](C)CO)C(=O)c2cc(NC(=O)NC3CCCCC3)ccc2O1 | inactive: 0.997
57 | COc1ccc(NC(=O)Nc2ccc3c(c2)C(=O)N([C@H](C)CO)C[C@@H](C)[C@@H](CN(C)Cc2ccc(C(=O)Nc4ccccc4N)cc2)O3)cc1 | inactive: 1
58 | COc1ccc(-c2cnc3c(c2)C(=O)N([C@@H](C)CO)C[C@H](C)[C@H](CN(C)C(=O)Cc2ccccn2)O3)cc1 | inactive: 0.982
59 | C[C@H]1CN([C@@H](C)CO)C(=O)c2cc(NS(=O)(=O)c3cccs3)ccc2O[C@H]1CN(C)Cc1ccc(-c2ccccc2)cc1 | inactive: 0.987
